Results as given in PubChem BioAssay AID485344 (National Center for Advancing Translational Sciences (NCATS), 2010).
Hit rate of the full screen: of about 340,000 compounds, about 6,900 (2%) were called active. Cut-off read from the data, not from the text of the source: active = inhibition above about 30%; inactive = below that, where a call was filed. Only a part is listed here, and it is no random draw. The source gives no active or inactive call for entries shown without one.

What follows are compounds tested against D(2) dopamine receptor (Homo sapiens) (UniProt P14416) (assay: HTS Assay for Allosteric Antagonists of the Human D2 Dopamine Receptor: Primary Screen for Antagonists). Settings: HEK293 TREx D2 cells, calcium flux, dopamine EC80; at 10 µM; stronger effect = higher value.
In short: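 In this primary screen, negative modulation is detected by tracking calcium flux after an EC80 dopamine challenge in inducible HEK293 T-REx D2 cells preexposed to test compound for 180 s.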
Note: 0% is about no effect.

UniProt P14416, sequence (P14416 whole entry, looked up): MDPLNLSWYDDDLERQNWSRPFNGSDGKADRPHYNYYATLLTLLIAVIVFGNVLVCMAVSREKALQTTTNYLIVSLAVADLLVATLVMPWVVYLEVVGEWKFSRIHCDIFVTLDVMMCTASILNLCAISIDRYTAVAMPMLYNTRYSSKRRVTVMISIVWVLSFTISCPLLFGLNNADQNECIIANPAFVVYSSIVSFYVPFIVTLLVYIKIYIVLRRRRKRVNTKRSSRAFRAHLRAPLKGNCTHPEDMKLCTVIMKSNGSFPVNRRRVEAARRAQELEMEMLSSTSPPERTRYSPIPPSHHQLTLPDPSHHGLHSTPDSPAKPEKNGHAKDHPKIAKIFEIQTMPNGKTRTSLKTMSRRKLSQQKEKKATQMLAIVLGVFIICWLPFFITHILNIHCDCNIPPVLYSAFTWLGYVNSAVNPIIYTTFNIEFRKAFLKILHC

| Structure (SMILES) | inhibition |
| --- | --- |
| CCC(C)Nc1nc2c(c(=O)[nH]c(=O)n2C)n1Cc1ccc(F)cc1 (stereo not drawn) | -3.24% |
| Cc1ccccc1Nc1c(-c2ccc(N3CCOCC3)cc2)nc2cccc(C)n12 | -1.88% |
| CCOc1ccccc1CNC(=O)c1ccc2nc(N3CCC(C)CC3)sc2c1 | -3.98% |
| Cc1ccc(-n2ncc3c(NCCc4ccc(S(N)(=O)=O)cc4)ncnc32)cc1 | -2.82% |
| CCCCOC(=O)CSc1ncnc2sc3c(c12)CCC(C)C3 (stereo not drawn) | 6.16% |
| CCc1ccc(CN2CCN(C(=O)c3ccco3)CC2)cc1 | active: 83.3% |
| OCC(O)CN1CCN(c2ccccc2)CC1 (stereo not drawn) | active: 58.9% |
| C=Cc1ccc(Cn2c(C(=O)O)c(CNCCc3ccco3)c3ccc(C)cc32)cc1 | 12.1% |
| COC(=O)c1cc2sccc2n1Cc1nc(-c2cccc(Cl)c2)oc1C | 1.27% |
| CC1=C(c2ccc(C)cc2)S(=O)(=O)NC1=NCc1ccccc1Cl | -5.51% |
| COc1ccc(CNCc2ccc(C(=O)O)s2)cc1 | -3.23% |
| CCOc1ccccc1NC(=O)CSc1ncc2c(n1)-c1ccccc1N(CC)S2(=O)=O | -11.3% |
| Cc1cccc(NC(=O)C(=O)NCCCN2CCOCC2)c1 | 16.3% |
| COc1ccc(NC(=O)c2nc(SCc3ccc(F)cc3)ncc2Cl)cc1 | -1.19% |
| CCOc1ccc(NC(=O)c2sc(-n3nc(C)c(CCC(C)C)c3C)nc2C)cc1 | -4.48% |
| Cc1cccc(C)c1Nc1c(-c2ccccn2)nc2ccc(Cl)cn12 | 1.02% |
| Cc1cccc(OC(=O)c2snnc2C)c1 | -11.6% |
| COc1ccc(-c2nc(CSCC(=O)N3CCN(c4ccccc4F)CC3)c(C)o2)cc1 | -5.82% |
| O=C(NCc1ccccc1)NC1COc2ccccc2C1 (stereo not drawn) | 9.94% |
| Cn1cc(S(=O)(=O)N2CCCCCC2)cc1C(=O)NCc1ccc(F)cc1 | 13.1% |
| CCN(C(=O)Cn1c(=O)oc2cc(S(=O)(=O)N3CCCCCC3)ccc21)c1cccc(C)c1 | 3.92% |
| O=C(CCS(=O)(=O)c1ccc(Br)s1)Nc1cc(C(F)(F)F)cc(C(F)(F)F)c1 | -2.38% |
| COc1ccc(C(=O)NC(c2ccccc2Cl)c2cc(Cl)c3cccnc3c2O)cc1 (stereo not drawn) | -11.1% |
| Cc1c(C)n(Cc2ccccc2)c2ccc(C(=O)N3CCN(c4ccccc4)CC3)cc12 | 8.13% |
| CCN(CC)S(=O)(=O)c1ccc2c(c1)N(CC(=O)Nc1c(C)cccc1C)C(=O)C1CCCN21 (stereo not drawn) | 2.89% |

| Structure (SMILES) | inhibition |
| --- | --- |
| CCOC(=O)c1oc2c(c1C)-c1nn(Cc3cccc(Cl)c3)cc1CC2 | 6.65% |
| Cc1ccc(OCC(=O)NCC(=O)OCc2cc(=O)n3nc(C(C)C)sc3n2)cc1 | 4.63% |
| CC(C)Oc1ccc(C(=O)N(Cc2ccc(N(C)C)cc2)Cc2ccco2)cc1 | 7.03% |
| O=C(COc1ccccc1F)Nc1ccc2nc(SCC(=O)N3CCOCC3)sc2c1 | -21.8% |
| CCOc1cc(C)c(Cl)cc1S(=O)(=O)NCCOC | active: 32.3% |
| O=S(=O)(c1ccccc1)c1nc(-c2ccc(F)cc2)oc1NCc1ccccc1 | 5.8% |
| COc1ccc(CNC(=O)CCCc2nnc3n(C(C)C)c(=O)c4sccc4n23)cc1 | 14.1% |
| O=C(NCCc1ccccc1)c1ccc2c(c1)nc1n2CCOC1 | -0.903% |
| Cc1ccc(S(=O)(=O)Nc2cc(Cl)c3oc4c(c3c2)CCCC4)cc1 | -16.4% |
| Cc1c(-c2nsc(NC(=O)c3cccs3)n2)nnn1-c1ccc(F)cc1 | 4.29% |
| CCOC(=O)c1cccc(NC(=O)CSc2ncc3c(n2)-c2ccc(Cl)cc2N(Cc2ccccc2)S3(=O)=O)c1 | -4.8% |
| COc1ccccc1CNC(=O)CCS(=O)(=O)c1ccc2c(c1)oc(=O)n2C | -0.132% |
| CCOC(=O)C1(CCOc2ccccc2)CCN(Cc2ccc(-n3cccn3)cc2)CC1 | active: 35.2% |
| CCOc1ccc(CNC(=O)CSc2c3c(nc4cc(Cl)ccc24)CCCC3)cc1 | 14.7% |
| CC1=C(C(=O)N2CCCCC2)C(c2ccc(Cl)cc2)n2c(nc3ccccc32)N1 (stereo not drawn) | 1.88% |
| Cc1ccc(CN2C(=O)c3ccccc3Sc3ccc(C(=O)N4CCOCC4)cc32)cc1 | 2.79% |
| Cc1cccc(C(=O)Nc2ccc(N3CC=C(c4ccccc4C)CC3)c(C(=O)O)c2)c1 | 18.9% |
| CCOc1ccc(NC(=O)CSc2oc(-c3ccco3)nc2S(=O)(=O)c2ccccc2)cc1 | -10.8% |
| COc1ccc(-c2nc(C)c(CCNC(=O)c3ccc(C(F)(F)F)cc3)s2)cc1OC | 8.85% |
| Cc1ccc(NC(=O)c2oc3ccc(S(=O)(=O)N(C)C4CCCCC4)cc3c2C)c(C)c1 | 21.6% |
| CCCNC(=O)c1cc2n(n1)CCCN(Cc1ccc(C)cc1)C2=O | -17.8% |
| CCOC(=O)c1c(C)oc2nc(C)nc(NCCc3ccc(C)cc3)c12 | -5.66% |
| COc1cc(NC(=O)CN2CCCN(Cc3cccc(F)c3)S2(=O)=O)cc(OC)c1 | -13.2% |
| O=c1[nH]c(CN2CCN(c3ccccc3)CC2)nc2scc(-c3ccccc3)c12 | active: 31.9% |
| Cc1c(C(=O)N2CCCC2)oc2c1-c1nn(CC(=O)NCCCN3CCCCC3)cc1CC2 | active: 37.3% |

| Structure (SMILES) | inhibition |
| --- | --- |
| CCCc1cc(N2CCN(c3ccccc3F)CC2)n2cnnc2n1 | 14.3% |
| Cn1c(CN2CCOCC2)nc2cc(NC(=O)c3ccccc3[N+](=O)[O-])ccc21 | 0.55% |
| CCOc1cccc2sc(N3CCN(C(=O)c4ccco4)CC3)nc12 | -24.3% |
| COc1cc(OC)c(NC(=O)c2ccc(-n3cnc4cccnc43)cc2)cc1Cl | -5.59% |
| O=C(NCCCN1CCN(c2ccc(F)cc2)CC1)Nc1ccccc1Cl | 2.91% |
| O=C(CSc1nc2c([nH]c3ccccc32)c(=O)n1-c1ccccc1)N1CCCCC1 | -3.47% |
| CC(C)CCNC(=O)c1cc(-c2cccnc2)nc2ccc(S(=O)(=O)N3CCC(C)CC3)cc12 | -23.9% |
| COc1cccc(CC2(CO)CCCN(Cc3ccc4c(c3)OCCO4)C2)c1 (stereo not drawn) | active: 56.2% |
| COc1ccc(NC(=O)c2nnn(-c3ccc(C(C)C)cc3)c2C)c(OC)c1 | 17.7% |
| Cc1cccc(-n2c3nc(=O)[nH]c(=O)c-3cc3ccc(Cl)cc32)c1C | 17.8% |
| CCOc1ccc(-c2cc(C(=O)NCCc3ccc(C)cc3)c3ccccc3n2)cc1 | 0.483% |
| CCOC(=O)c1c(N)n(-c2ccc(OCC)cc2)c2nc3ccccc3nc12 | -2.79% |
| CC(=O)c1cccc(NC(=O)Cn2ccn3nc(-c4ccccc4)cc3c2=O)c1 | -25.9% |
| Cc1cc(Nc2cc(Cl)ccc2C)n2nc(-c3ccccc3)nc2n1 | 4.25% |
| Cc1ccc(CN(Cc2cccn2-c2nnc(N3CCCC3=O)s2)C(=O)Nc2ccccc2Cl)cc1 | 2.13% |
| Cc1cc(C)c2c(NC(=O)c3ccccc3Cl)c(C(=O)NCc3ccc(Cl)cc3)sc2n1 | 11.2% |
| Cc1nc2c(-c3ccc(F)cc3)c(C)nn2c(C)c1CCC(=O)NCc1ccc(F)cc1 | 8.05% |
| CCOC(=O)c1c(C)[nH]c(CCC(=O)NCc2ccc(OC)cc2OC)c1C | 9.02% |
| COc1ccc(OCCCn2c(C3CC(=O)N(c4ccc(F)cc4)C3)nc3ccccc32)cc1 (stereo not drawn) | -5.89% |
| CC(=O)Nc1cccc(NC(=O)CSc2nccn2Cc2ccccc2)c1 | -17.2% |
| CC1=C(c2ccc(C(C)C)cc2)S(=O)(=O)N=C1N1CCC(C(=O)NCc2ccc(C)o2)CC1 | 10.2% |
| O=C(NC1CCCCC1)c1ccc(CSc2nc3cccnc3n2Cc2ccccc2)cc1 | 13.4% |
| Cc1ccccc1-c1noc(-c2ccc(NCc3cccnc3)c([N+](=O)[O-])c2)n1 | 15.9% |
| Cc1ccccc1NC(=O)c1c(C)oc2ccc(O)c(CN3CCCCCC3)c12 | 20.4% |
| COc1ccc(C)cc1NC(=O)CN(C)S(=O)(=O)c1ccc2c(c1)c(=O)n(C)c(=O)n2C | -21% |

| Structure (SMILES) | inhibition |
| --- | --- |
| CCC(CC)C(=O)Nc1ccc(S(=O)(=O)N2CCC(c3nc4ccccc4s3)CC2)cc1 | 0.61% |
| Cc1nc(-c2ccc(S(=O)(=O)N3CCN(c4ccccc4F)CC3)cc2)co1 | 3.36% |
| Cc1ccccc1NC(=O)c1sc2nc(-c3cc4ccccc4oc3=O)[nH]c(=O)c2c1C | -0.0653% |
| CCN(C(=O)Cn1c(C(=O)OC)cc2sccc21)c1cccc(C)c1 | -5.04% |
| CCCn1cc(S(=O)(=O)c2ccc(C)c(C)c2)c(=O)c2cc(F)c(N3CCCCC3)cc21 | 9.37% |
| CC(C)NC(=O)c1ccc(CSc2nc3ccncc3n2Cc2cccc(F)c2)cc1 | 2.34% |
| Cc1ccc(-c2nc3sc(CCNC(=O)c4ccc(F)c(F)c4)c(C)n3n2)cc1 | -7.98% |
| CCCCC12CN3CC(C)(CN(C1)C3c1ccc(OCc3ccccc3)cc1)C2=O (stereo not drawn) | 8.31% |
| CC1=C(C(=O)Nc2ccccc2Br)C2(CCC(C)CC2)OC1=O (stereo not drawn) | -3.42% |
| O=C(C1CCN(S(=O)(=O)c2cccs2)CC1)N1CCN(c2ccccc2F)CC1 | 17.4% |
| Cc1ccc(CNC(=O)CCCCCn2c(=O)c3sccc3n(CC(=O)N3CCCCC3C)c2=O)cc1 (stereo not drawn) | -0.228% |
| COc1cccc(CNC(=O)CN2C(=O)COc3ccc(S(=O)(=O)N4CCCCC4)cc32)c1 | 24.2% |
| CCN(CC)c1ccc(CN(C(=O)c2cc(=O)c3ccccc3o2)C2CCS(=O)(=O)C2)cc1 (stereo not drawn) | 9.43% |
| Cc1nn(Cc2ccc(F)cc2)c(C)c1NC(=O)c1noc2c1CCc1ccccc1-2 | -8.7% |
| CCn1cc2nc(SCc3cc(C)ccc3C)n(Cc3ccc(Cl)cc3)c(=O)c2n1 | -3.86% |
| CCOC(=O)c1ccc(NC(=O)Cc2noc3ccc(C)cc23)cc1 | -2.66% |
| Cn1cc(S(=O)(=O)N2CCCC2)cc1C(=O)Nc1ccc(F)cc1F | 14.6% |
| CC(C)c1ccc(C2CC(=O)N3CN(C4CCCCC4)CSC3=C2C#N)cc1 (stereo not drawn) | 6.37% |
| CC(C)Oc1cccc(C(=O)Nc2ccccc2N2CCOCC2)c1 | active: 33.4% |
| Cc1ccccc1-c1nc(CNC(=O)NC2CCCCC2)c(C)o1 | 13% |
| Cn1ccc2cc(S(=O)(=O)N3CCCC(C(=O)NCc4ccccc4F)C3)ccc21 (stereo not drawn) | -14.7% |
| CC1=C(C(=O)Nc2ccccc2)C(c2ccc(Br)cc2)n2nc(CCCO)nc2N1 (stereo not drawn) | -0.31% |
| COc1ccc(-n2ncc3c2ncn2nc(-c4ccc(OC)c(OC)c4)nc32)cc1 | 0.871% |
